PubChem BioAssay (NCATS)
Inconclusive means that the source gave no clear call. Such entries were picked first, then a sample of the others. For part of these data: Potencies beside an inconclusive call are fits to weak or partial responses and may not hold up. The source made the active and inactive calls. Unless noted, calls follow the shape of the dose curve; as a rule, active = well fitted curve in the direction sought with a large enough effect; inconclusive = small, poorly fitted or top-dose-only effect, or another doubt; inactive = no such curve, though single readings can be large; an effect the other way counts as inactive or inconclusive.

Tests used:
[1] = qHTS Validation Assay to Find Inhibitors of Chronic Active B-Cell Receptor Signaling (AID 485345; active = well fitted curve in the direction sought with a large enough effect in the main read-out, with a control signal flat, not every such curve was filed as active; inconclusive = small, poorly fitted or top-dose-only effect, or effect the other way, or a change in a side signal; inactive = no such curve, though single readings can be large or run the other way;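 also: 0% = untreated basal cells and 100% = 10 µM MG-132 proteasome inhibitor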); conditions: ABC-DLBCL cells, chronic BCR signaling reporter, CBG luciferase; at 46.1 µM (top of the series)
How it was run: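 Read-out: ratio of filter-corrected green (IkappaBalpha fusion) to red (native) luciferase signal in doxycycline-induced TMD8 cells after 4 h at 37C. Titration spanned 46 uM–3 nM; Data were normalised to basal cells and 10 uM MG-132 wells.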

[2] = biological target: ATP-dependent 6-phosphofructokinase (Trypanosoma brucei brucei) (UniProt O15648); test: qHTS Validation Assay to Find Inhibitors of T. brucei phosphofructokinase (AID 485368); also: potency is read from the fitted curve at half-maximal effect
How it was run: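 qHTS format, up to 57 uM. PFK 1.25 nM; F6P 0.5 mM; ATP 0.1 mM; 5 mM MgCl2, 0.01% Tween20, 0.1% BSA; 0.1 M TEA pH 8.0; 45 min RT; ADP-Glo readout; no-enzyme control = full inhibition.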

[3] = biological target: D(1A) dopamine receptor (Homo sapiens) (UniProt P21728); test: HTS Assay for Allosteric Agonists of the Human D1 Dopamine Receptor: Primary Screen for Potentiators (AID 488982); also: potency is read from the fitted curve at half-maximal effect
How it was run: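 Calcium flux in an inducible, force-coupled HEK293 Trex D1 line (overnight at 30 C): agonist mode is the 180 s kinetic read after compound; potentiator mode is the following 180 s read after dopamine at EC20.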

[4] = Nrf2 qHTS screen for inhibitors: Validation (AID 493153; active = well fitted inhibition curve with a large enough effect in the main read-out, with a control signal flat, not every such curve was filed as active; inconclusive = small, poorly fitted or top-dose-only effect, or effect the other way, or a change in a side signal; inactive = no such curve, though single readings can be large or run the other way; also: potency is read from the fitted curve at half-maximal effect)
How it was run: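 In this counterscreened reporter format, each well gives two signals: CellTiter-Fluor fluorescence for cytotoxicity and ARE-luciferase luminescence for Nrf2 function. A549 ARE_Fluc cells in 5% FBS OPTI-MEM were exposed to compound titrations for 18-24 h.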

[5] = biological target: phosphoglycerate mutase (Leishmania major) (UniProt Q4Q090); test: qHTS Validation Assay to Find Inhibitors of Phosphoglycerate Mutase (AID 504548); conditions: Potency: inhibition qHTS; also: potency is read from the fitted curve at half-maximal effect
How it was run: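 Luminescent end-point read-out via Kinase-GloPlus after a 10-minute development. Reaction: 1.25nM Leishmania major PGAM with substrate and compound, 45 minutes at room temperature in TEA buffer (pH 7.6) with MgCl2 and Tween-20.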

[6] = qHTS for Inhibitors of ATXN expression: Validation (AID 588378); also: potency is read from the fitted curve at half-maximal effect; nearly all actives have a fitted effect of over 75% in size
How it was run: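 Luciferase luminescence (Bright-Glo) from an ATXN2-FFLuc HEK293 line after 24 h compound exposure at 37 °C, preceded by a CellTiter-Fluor fluorescence viability read. Serial dilutions of a reference ATXN2 inhibitor and a luciferase inhibitor served as controls.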

[7] = biological target: Glucagon-like peptide 1 receptor (Homo sapiens) (UniProt P43220); test: qHTS of GLP-1 Receptor Agonists: LOPAC Validation (AID 624148);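 also: luminescence from a luciferase reporter switched on by cAMP; 0% is about no effect; higher luminescence signal means agonism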
How it was run: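 Agonism scored as increased luciferase luminescence driven by cAMP in HEK293 clones carrying GLP-1R. Cells settled 12 hours, received compound for 4-6 hr at 37 deg C, 5% CO2, and were read after 12 min detection reagent at RT.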

[8] = qHTS for Activators of Parkin Expression: LOPAC Validation Assay (NLuc Reporter) (AID 720572; also: potency is read from the fitted curve at half-maximal effect)
How it was run: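 Compound effects on Parkin promoter activity were measured as NanoLuc luminescence after 24 h at 37 C. The neuronal reporter line also carried FLuc, which was read first. LOPAC compounds were tested at 7 concentrations, with normalization to DMSO (0%) and positive control (100%).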

[9] = tested on: Zika virus NS2B-NS3 protease (unlinked); test: Optimization of GU AMC qHTS for Zika virus inhibitors: Unlinked NS2B-NS3 protease assay (AID 1347151); conditions: recombinant ZIKV NS2B-NS3 protease, fluorogenic AMC substrate; activity change, negative = inhibition: at 52.5 µM (top of the series) unless noted; also: potency is read from the fitted curve at half-maximal effect; nearly all actives have a fitted effect of over 80% in size
How it was run: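 Fluorescence gain (340/450 nm) over 15 min at room temperature, ~20% conversion, gave percent inhibition fitted to a 4-parameter Hill equation; enzyme was unlinked NS2B-NS3 (25 nM final), pH 8.0 Tris buffer.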

[10] = qHTS to identify inhibitors of the type 1 interferon - major histocompatibility complex class I in skeletal muscle: primary screen against the NCATS LOPAC collection (AID 1347405)
How it was run: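 IFN-beta-stimulated (4 ng/ml) HLA-B HiBiT knock-in myoblasts, compound-treated 24 hrs up to 46 uM final; signal via LgBiT complementation and furimazine luminescence.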

[11] = Primary qHTS for small molecule stabilizers of the endoplasmic reticulum resident proteome: Secreted ER Calcium Modulated Protein (SERCaMP) assay (AID 1508630); conditions: SH-SY5Y GLuc-SERCaMP (Gaussia luciferase released on ER calcium loss) secretion, thapsigargin, luminescence; activity change, negative = inhibition: at 38.4 µM (top of the series) unless noted; also: potency is read from the fitted curve at half-maximal effect
How it was run: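 The SH-SY5Y reporter protocol was run at 3 concentrations up to 38.3 uM (primary) or 11 concentrations (follow-up): 16 h compound, 100 nM thapsigargin for 4 h, then extracellular luciferase luminescence.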

[12] = qHTS assay to identify inhibitors of the type 1 interferon - major histocompatibility complex class I in skeletal muscle: Counter screen cell viability and HiBit confirmation (AID 1347412); conditions: iHSKM muscle cells + IFN-b, HiBiT or CellTiter-Glo, 24 h; also: nearly all actives have a fitted effect of over 60% in size; also: potency is read from the fitted curve at half-maximal effect; as to activity change, negative = inhibition: % is scaled to controls: 0 for no effect and ±100 for the full control effect
How it was run: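 After 24 h with human IFN-beta (4 ng/ml) and compound titrations (top 46 uM final, 1:3, 12 points), HLA-B HiBit myoblasts were lysed for either Nano-Glo HiBiT luminescence or CellTiter Glo viability on paired plates.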

[13] = biological target: DNA polymerase III PolC-type (Bacillus subtilis (strain 168)) (UniProt P13267); test: qHTS Validation Assay for the Inhibitors of DNA Replication in Gram-Positive Bacteria (AID 485295); also: potency is read from the fitted curve at half-maximal effect
How it was run: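 Double-stranded DNA product detected by PicoGreen fluorescence after EDTA quench. Compound incubated with B. subtilis holoenzyme (PolC, beta subunit, SSB, primase) before substrate addition; primed replication of M13Gori with dNTPs and NTPs at room temperature; DMSO defines 0% inhibition.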

[14] = biological target: D(1A) dopamine receptor (Homo sapiens) (UniProt P21728); test: HTS Assay for Allosteric Agonists of the Human D1 Dopamine Receptor: Primary Screen for Antagonists (AID 488983);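 also: calcium flux response to an EC80 dopamine challenge measured with no-wash dye; potency is read from the fitted curve at half-maximal effect; nearly all actives have a fitted effect of over 65% in size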
How it was run: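 In this primary screen, compounds are applied to calcium-dye-loaded HEK293 T-REx cells with force-coupled D1 expression induced overnight at 30 C. An EC80 of dopamine follows the 180 s compound phase, and calcium is monitored for a further 180 s.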

[15] = biological target: Ubiquitin carboxyl-terminal hydrolase 1 (Homo sapiens) (UniProt O94782); test: Inhibitors of USP1/UAF1: Pilot qHTS (AID 504865);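 also: rhodamine fluorescence freed from ubiquitin-rhodamine substrate followed over time; potency is read from the fitted curve at half-maximal effect; nearly all actives have a fitted effect of over 35% in size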
How it was run: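 Deubiquitinase activity followed as kinetic rhodamine fluorescence release from 150 nM Ub-Rho. 1 nM USP1/UAF1 with compound, after 15 min room-temperature preincubation, in HEPES pH 7.8 buffer containing TCEP, EDTA, BSA and Tween-20.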

[16] = biological target: Calcium and integrin-binding protein 1 (Homo sapiens) (UniProt Q99828); test: Validation qHTS for Identification of Calcium Integrin Binding protein 1 (CIB1) Competitor (AID 1508618); also: % is scaled to controls: 0 for no effect and ±100 for the full control effect
How it was run: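 Displacement of FITC-alphaIIb peptide (100 nM) from CIB1-GST (1 uM) is monitored by polarization in quantitative HTS format; buffer carries 5 mM CaCl2 and 125 mM NaCl at pH 7.4, incubations are at room temperature.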
Tags tell the direction and shape of the fitted curve.

Sequence of UniProt P21728 (P21728 whole entry, looked up): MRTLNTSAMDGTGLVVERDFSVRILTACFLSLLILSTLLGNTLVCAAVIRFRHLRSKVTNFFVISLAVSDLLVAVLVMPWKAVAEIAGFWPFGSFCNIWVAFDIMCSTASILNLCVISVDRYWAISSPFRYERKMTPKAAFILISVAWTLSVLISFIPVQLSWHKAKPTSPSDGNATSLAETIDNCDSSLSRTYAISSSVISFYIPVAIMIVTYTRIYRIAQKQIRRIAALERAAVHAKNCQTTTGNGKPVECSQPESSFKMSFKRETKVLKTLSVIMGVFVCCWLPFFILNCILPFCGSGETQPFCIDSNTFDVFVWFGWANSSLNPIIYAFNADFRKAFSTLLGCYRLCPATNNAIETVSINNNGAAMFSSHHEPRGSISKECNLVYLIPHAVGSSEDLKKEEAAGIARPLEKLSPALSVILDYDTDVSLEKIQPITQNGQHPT
Sequence of UniProt O15648 (O15648 whole entry, looked up): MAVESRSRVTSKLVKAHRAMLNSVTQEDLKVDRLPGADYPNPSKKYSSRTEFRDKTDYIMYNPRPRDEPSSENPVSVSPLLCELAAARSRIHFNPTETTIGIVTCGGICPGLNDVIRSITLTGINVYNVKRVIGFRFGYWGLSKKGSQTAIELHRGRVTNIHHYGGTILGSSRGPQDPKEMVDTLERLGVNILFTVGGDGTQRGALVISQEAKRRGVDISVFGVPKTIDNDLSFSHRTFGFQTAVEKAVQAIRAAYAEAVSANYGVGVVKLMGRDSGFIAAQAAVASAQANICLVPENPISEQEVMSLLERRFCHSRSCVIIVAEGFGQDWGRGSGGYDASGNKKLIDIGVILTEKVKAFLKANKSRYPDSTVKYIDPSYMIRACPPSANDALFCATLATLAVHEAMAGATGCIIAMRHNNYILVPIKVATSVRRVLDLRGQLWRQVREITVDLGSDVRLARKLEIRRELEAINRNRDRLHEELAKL
Sequence of UniProt P13267 (P13267 whole entry, looked up): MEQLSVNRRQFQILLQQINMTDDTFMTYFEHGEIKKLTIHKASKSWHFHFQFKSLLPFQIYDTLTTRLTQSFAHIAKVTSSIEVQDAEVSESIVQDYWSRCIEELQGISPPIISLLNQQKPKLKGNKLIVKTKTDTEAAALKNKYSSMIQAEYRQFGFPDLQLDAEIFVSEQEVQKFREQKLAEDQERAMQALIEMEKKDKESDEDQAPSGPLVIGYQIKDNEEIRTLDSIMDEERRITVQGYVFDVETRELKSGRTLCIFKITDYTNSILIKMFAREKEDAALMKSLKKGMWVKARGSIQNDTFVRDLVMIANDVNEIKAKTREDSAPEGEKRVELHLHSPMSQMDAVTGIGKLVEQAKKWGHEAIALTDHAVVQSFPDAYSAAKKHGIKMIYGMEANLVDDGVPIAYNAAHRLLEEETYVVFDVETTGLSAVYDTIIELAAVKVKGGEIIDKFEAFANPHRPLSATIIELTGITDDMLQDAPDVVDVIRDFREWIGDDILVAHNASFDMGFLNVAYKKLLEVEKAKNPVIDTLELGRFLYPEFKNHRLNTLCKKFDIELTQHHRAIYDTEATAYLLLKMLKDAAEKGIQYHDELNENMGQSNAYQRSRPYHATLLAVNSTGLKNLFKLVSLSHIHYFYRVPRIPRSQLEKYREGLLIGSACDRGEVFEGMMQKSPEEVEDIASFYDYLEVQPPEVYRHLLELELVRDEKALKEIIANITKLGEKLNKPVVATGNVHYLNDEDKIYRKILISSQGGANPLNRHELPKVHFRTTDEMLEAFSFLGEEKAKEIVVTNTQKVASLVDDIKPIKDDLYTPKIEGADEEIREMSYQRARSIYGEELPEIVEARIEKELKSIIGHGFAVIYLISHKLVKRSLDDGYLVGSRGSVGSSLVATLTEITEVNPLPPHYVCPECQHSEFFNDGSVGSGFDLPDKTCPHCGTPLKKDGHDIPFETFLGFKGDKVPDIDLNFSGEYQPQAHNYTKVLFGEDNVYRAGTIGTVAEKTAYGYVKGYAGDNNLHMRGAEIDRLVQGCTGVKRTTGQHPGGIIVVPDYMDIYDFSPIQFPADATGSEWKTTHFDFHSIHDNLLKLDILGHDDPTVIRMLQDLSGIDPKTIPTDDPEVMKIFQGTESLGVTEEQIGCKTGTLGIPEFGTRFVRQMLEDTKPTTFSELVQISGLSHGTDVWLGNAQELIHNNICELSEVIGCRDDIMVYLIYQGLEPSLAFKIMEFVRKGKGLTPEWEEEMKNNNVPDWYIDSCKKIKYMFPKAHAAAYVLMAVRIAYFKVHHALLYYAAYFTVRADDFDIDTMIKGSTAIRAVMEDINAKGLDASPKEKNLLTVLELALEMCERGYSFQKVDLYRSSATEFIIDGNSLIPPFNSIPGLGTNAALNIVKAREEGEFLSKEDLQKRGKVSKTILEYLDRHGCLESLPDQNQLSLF
Sequence of UniProt O94782 (O94782 whole entry, looked up): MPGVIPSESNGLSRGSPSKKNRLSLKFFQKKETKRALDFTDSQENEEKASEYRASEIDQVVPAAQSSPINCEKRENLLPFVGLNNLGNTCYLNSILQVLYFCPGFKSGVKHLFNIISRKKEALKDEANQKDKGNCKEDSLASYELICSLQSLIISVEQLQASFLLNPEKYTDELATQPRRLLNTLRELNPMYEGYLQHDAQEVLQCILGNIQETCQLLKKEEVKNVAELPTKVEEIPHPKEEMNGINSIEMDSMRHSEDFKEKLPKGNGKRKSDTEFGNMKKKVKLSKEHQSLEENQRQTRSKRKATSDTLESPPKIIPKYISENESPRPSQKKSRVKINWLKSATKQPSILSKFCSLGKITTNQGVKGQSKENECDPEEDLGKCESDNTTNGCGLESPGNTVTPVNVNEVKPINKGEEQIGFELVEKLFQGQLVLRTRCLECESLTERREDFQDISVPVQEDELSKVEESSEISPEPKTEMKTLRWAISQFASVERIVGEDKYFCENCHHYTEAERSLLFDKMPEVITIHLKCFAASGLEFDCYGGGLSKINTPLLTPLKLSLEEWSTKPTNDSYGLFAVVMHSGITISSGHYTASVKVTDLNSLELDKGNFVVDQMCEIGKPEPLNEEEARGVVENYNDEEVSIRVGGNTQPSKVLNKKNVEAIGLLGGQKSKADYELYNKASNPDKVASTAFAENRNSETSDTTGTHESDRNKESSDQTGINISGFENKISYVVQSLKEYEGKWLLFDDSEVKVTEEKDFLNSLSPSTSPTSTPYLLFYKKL
Sequence of UniProt P43220 (P43220 whole entry, looked up): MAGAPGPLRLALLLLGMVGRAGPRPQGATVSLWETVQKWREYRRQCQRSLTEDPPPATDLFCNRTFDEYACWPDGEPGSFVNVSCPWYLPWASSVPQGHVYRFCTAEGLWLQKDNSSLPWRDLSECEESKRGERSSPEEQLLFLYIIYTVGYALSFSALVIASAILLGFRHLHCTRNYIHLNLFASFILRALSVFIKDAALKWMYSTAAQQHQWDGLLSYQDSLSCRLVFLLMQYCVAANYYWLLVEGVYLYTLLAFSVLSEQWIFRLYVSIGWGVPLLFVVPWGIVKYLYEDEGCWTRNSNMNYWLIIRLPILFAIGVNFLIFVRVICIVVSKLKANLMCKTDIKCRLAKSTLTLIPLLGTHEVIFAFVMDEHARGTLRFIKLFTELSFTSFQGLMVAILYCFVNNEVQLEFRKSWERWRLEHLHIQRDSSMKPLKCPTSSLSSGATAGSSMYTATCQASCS
Sequence of UniProt Q99828 (Q99828 whole entry, looked up): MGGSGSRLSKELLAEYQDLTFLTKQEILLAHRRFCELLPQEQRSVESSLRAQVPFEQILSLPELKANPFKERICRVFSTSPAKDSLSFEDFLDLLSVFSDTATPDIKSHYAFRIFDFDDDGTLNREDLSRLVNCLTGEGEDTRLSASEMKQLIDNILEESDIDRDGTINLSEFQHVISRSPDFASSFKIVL

Brc1c(Br)c(Br)c2[nH]cnc2c1Br
active: Potency [10] 12.6 µM | Potency ([12]; HiBiT) 14 µM
inconclusive: activity change [1] 51.7% | Potency [3] 5.8 µM [activator, single point] | Potency [4] 18.4 µM [inhibitor, partial curve, poor fit] | Potency [5] 15.1 µM [inhibitor, partial curve] | Potency [6] 8.91 µM [inhibitor, partial curve, poor fit] | Potency [8] 2.91 µM [activator, single point] | Potency [9] 10.6 µM [inhibitor, partial curve, poor fit] | Potency [11] 3.16 µM [inhibitor, full curve, poor fit]
inactive: Potency [2] | Potency [7] | activity change, negative = inhibition ([12]; Viability, at 45.9 µM (top of the series)) 3.14%

CCCCCCCCCCC(C)(C)C(=O)Nc1c(OC)cc(OC)cc1OC
inactive: Potency [16]
active: Potency [15] 44.7 µM
inconclusive: Potency [13] 23.8 µM [inhibitor, single point] | Potency [2] 42.6 µM [falling, partial curve, poor fit] | Potency [14] 17.8 µM [activator, partial curve, poor fit] | Potency [4] 32.6 µM [inhibitor, partial curve, poor fit] | Potency [9] 26.7 µM [inhibitor, single point] | Potency [10] 28.2 µM [inhibitor, single point]
